From PubChem BioAssay AID1030 (National Center for Advancing Translational Sciences (NCATS), 2008)
Hit rate of the full screen: of about 220,000 compounds, about 16,000 (7.3%) were called active. The inconclusive results got no clear call from the source; some entries with a clear call stand among them for comparison. The call rests on the fitted dose curve; in most records, active means well fitted inhibition curve with a large enough effect (not every such curve was filed as active); inconclusive means small, poorly fitted or top-dose-only effect, or another doubt; inactive means no such curve, though single readings can be large or run the other way. Potencies of inconclusive entries are left out as doubtful fits.

These compounds were tested against Aldehyde dehydrogenase 1A1 (Homo sapiens) (UniProt P00352) (assay: qHTS Assay for Inhibitors of Aldehyde Dehydrogenase 1 (ALDH1A1)). Details: Purified ALDH1A1, NADH fluorescence, propionaldehyde substrate; series mostly up to 75.3 µM.
Chain of UniProt P00352 (P00352 whole entry, looked up): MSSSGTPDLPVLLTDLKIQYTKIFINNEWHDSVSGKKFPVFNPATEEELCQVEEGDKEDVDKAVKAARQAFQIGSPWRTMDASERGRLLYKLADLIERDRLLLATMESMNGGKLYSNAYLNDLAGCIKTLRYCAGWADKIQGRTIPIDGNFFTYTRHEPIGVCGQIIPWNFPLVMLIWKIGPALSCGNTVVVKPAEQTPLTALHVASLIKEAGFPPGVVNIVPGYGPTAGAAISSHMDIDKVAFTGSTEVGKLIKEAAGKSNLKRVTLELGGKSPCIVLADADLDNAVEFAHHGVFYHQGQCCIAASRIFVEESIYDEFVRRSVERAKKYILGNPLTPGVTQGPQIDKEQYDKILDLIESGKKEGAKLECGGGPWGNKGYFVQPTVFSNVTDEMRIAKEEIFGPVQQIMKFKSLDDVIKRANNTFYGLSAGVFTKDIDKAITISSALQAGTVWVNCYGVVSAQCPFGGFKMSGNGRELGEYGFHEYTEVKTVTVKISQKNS
Potency means the concentration at half of the fitted maximal effect; tags describe the fitted curve by direction and shape.

| Compound | Potency |
| --- | --- |
| CCOCCCNC(=O)/C(C#N)=C/c1ccc(Cl)c([N+](=O)[O-])c1 | active: 10 µM |
| COc1ccccc1-c1nc2s/c(=C\c3cccs3)c(=O)n2n1 | inactive |
| C=CCN(Cc1cc(OC)ccc1OC)S(=O)(=O)N(C)C | inactive |
| Cc1cc2cc(CN(CC3CCCO3)C(=S)Nc3ccccc3)c(=O)[nH]c2cc1C (stereo unspecified) | inconclusive [inhibitor, single point] |
| Cc1cc(=O)n2c(c1C#N)SC1CCCCC12O (stereo unspecified) | inconclusive [inhibitor, single point] |
| COc1ccc(N=C2SC(C(=O)Nc3ccc(OC)cc3)CC(=O)N2CCN2CCOCC2)cc1 (stereo unspecified) | inconclusive [inhibitor, single point] |
| O=C(Cc1ccc(F)cc1)Oc1ccc(C(=S)N2CCCC2)cc1 | inactive |
| O=C(COC(=O)C1(c2ccc(F)cc2)CCCC1)N1CCN(C(=O)c2ccco2)CC1 | active: 20 µM |
| COc1ccc(N2CCC(CNC(=O)Nc3ccc(C)c(C)c3)C2)cc1 (stereo unspecified) | inconclusive [inhibitor, partial curve] |
| COc1cc(S(=O)(=O)N2CCCCC2)ccc1NC(=O)c1ccc(F)cc1 | inconclusive [inhibitor, single point] |
| Cc1cc(C)cc(N=Cc2c(O)c3ccccc3oc2=O)c1 | inconclusive [inhibitor, single point] |
| O=C(CCn1c(=O)oc2ccccc21)Nc1nc2ccccc2s1 | inconclusive [inhibitor, single point] |
| COc1cc(C(F)(F)F)nc2c(Br)c(C(C)(C)C)nn12 | inconclusive [inhibitor, single point] |
| Cc1nnc(N/N=C/C2CC=CCC2)[nH]c1=O (stereo unspecified) | inconclusive [inhibitor, single point] |
| Cc1cc(NC(=O)CN2CCN(c3ccccc3O)CC2)no1 | inactive |
| CCOC(=O)COc1ccc(S(=O)(=O)Nc2ccc3c(c2)OCO3)cc1 | inconclusive [inhibitor, single point] |
| CCCC1Cc2c(sc3ncnc(N)c23)CO1 (stereo unspecified) | inconclusive [inhibitor, single point] |
| O=C(c1cnc(N2CCN(c3ccccn3)CC2)c2ccccc12)N1CCN(c2cccc(Cl)c2)CC1 | inconclusive [inhibitor, partial curve] |
| COc1ccc(CC(=O)N[C@@H](CCSC)c2nc3ccccc3[nH]2)cc1 | active: 8.91 µM |
| CC(=O)Nc1ccc2c(c1)N(C(C)=O)c1ccccc1CC2 | inconclusive [inhibitor, single point] |
| O=C(c1ccc(Br)cc1)c1sc(N2CCOCC2)nc1-c1ccccc1 | inconclusive [inhibitor, single point] |
| O=C(NN1C(=O)C2C3C=CC(C3)C2C1=O)c1ccncc1 (stereo unspecified) | inactive |
| CCOc1ccc(-c2nnc(N(CC)C(=O)C3CCC3)s2)cc1 | inconclusive [inhibitor, single point] |

| Compound | Potency |
| --- | --- |
| CCOC(=O)CSc1nc2cc(C(=O)N3CCC(C(N)=O)CC3)ccc2c(=O)n1C1CCCCC1 | inconclusive [inhibitor, single point] |
| COc1ccccc1C(CCN(Cc1cccs1)C(C)=O)c1ccco1 (stereo unspecified) | active: 8.91 µM |
| Nc1c(S(=O)(=O)O)cc(Nc2ccc(Nc3nc(Cl)nc(Nc4ccc(S(=O)(=O)O)cc4)n3)c(S(=O)(=O)O)c2)c2c1C(=O)c1ccccc1C2=O | inactive |
| C/C=C/C(=O)OCC(=O)Nc1cc(OC)c([N+](=O)[O-])cc1C | inconclusive [inhibitor, single point] |
| CC(C)(C)OC(=O)N1CCCC(C(=O)CC#N)C1 (stereo unspecified) | inconclusive [inhibitor, single point] |
| CC(C)(C)NC(=O)CSc1nnc(Cc2ccccc2)n1CC1CCCO1 (stereo unspecified) | inactive |
| O=C(/C=N\O)NCCCNCc1ccccc1 | active: 22.4 µM |
| C/C(Cn1nnc([N+](=O)[O-])n1)=N\NC(=O)c1ccncc1 | inconclusive [inhibitor, single point] |
| O=C(NCC1CCCO1)c1ccc(COc2ccc(Br)cc2)cc1 (stereo unspecified) | inconclusive [inhibitor, single point] |
| N#Cc1c(NC(=O)CSc2nnc(-c3ccncc3)n2CC2CCCO2)sc2c1CCCC2 (stereo unspecified) | inconclusive [inhibitor, single point] |
| Nc1ncnc(Nc2ccc(S(N)(=O)=O)cc2)n1 | inactive |
| CCN(CC)c1ccc(NC(=O)COC(=O)CSc2ccc(Br)cc2C)cc1 | inconclusive [inhibitor, single point] |
| CCCCOc1ccc(-c2nnc(-c3ccncc3)o2)cc1 | inconclusive [inhibitor, partial curve] |
| COc1cc2c(=O)n(Cc3ccco3)c(=O)n(CC(=O)c3cccc(Br)c3)c2cc1OC | active: 1.12 µM |
| CC(C)(C)c1ccc(C(=O)NC(=S)Nc2ccc(N3CCOCC3)cc2)cc1 | active: 10 µM |
| O=c1[nH]c2cc3c(cc2cc1C(c1nnnn1C1CCCC1)N1CCSCC1)OCCO3 (stereo unspecified) | inconclusive [inhibitor, partial curve] |
| CC1CCN(c2nc(Cl)nc(Nc3ccc([N+](=O)[O-])cc3)n2)CC1 | active: 15.8 µM |
| CCN1C(=O)/C(=C\c2nc3ccccc3c(=O)n2-c2ccccc2)c2ccccc21 | inconclusive [inhibitor, single point] |
| Cc1ccc(S(=O)(=O)Nc2c(C)n(C)n(-c3ccccc3)c2=O)cc1C(=O)NCc1ccccn1 | inconclusive [inhibitor, single point] |
| OCCC1CN(CC(c2ccccc2)c2ccccc2)CCN1C1CCCC1 (stereo unspecified) | inconclusive [inhibitor, single point] |
| C#CCSc1nnnn1-c1cccc(Cl)c1 | inactive |
| COC(=O)C(C)(C)ONC(=O)Nc1ccccc1Cl | inactive |
| Cc1ccc(-n2ncc3c(=O)n(CC(=O)NCc4ccco4)cnc32)cc1C | inconclusive [inhibitor, partial curve] |
